{"source": "the supplement of paper PMC4604168 (melanoma cell lines)", "note": "The other results are listed elsewhere or left out. Many values rest on one well or one pass, so single values are uncertain.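 Note: cells treated in 1,536-well plates, then fixed and DAPI-stained, with nuclei counted from automated high-throughput microscope images.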"}
{"tested_on": "COLO829", "assay": "cell count relative to DMSO control; melanoma cells; higher = more viable cells", "details": "library dose: standard library concentration; 72 h", "units": {"cell count": "%"}}
{"smiles": "Cn1nnc2c(C(N)=O)ncn2c1=O", "note": "[temozolomide] + COc1cc2ncnc(Nc3ccc(Oc4ccccc4)cc3)c2cc1OC [SrcI1] (first compound 10 µM, partner dose 10 µM)", "cell count": 96.4}
{"smiles": "O=C(Nc1ccccc1)c1cc([N+](=O)[O-])ccc1Cl", "note": "+ COC(=O)c1sccc1S(=O)(=O)Nc1ccc(Nc2ccccc2)cc1OC [GSK0660] (first compound 10 µM, partner dose 5 µM)", "cell count": 73.7}
{"smiles": "Cc1cc(N2CCOCC2)cc2[nH]c(-c3c(NC[C@@H](O)c4cccc(Cl)c4)cc[nH]c3=O)nc12", "note": "+ c1cc(-c2cnn3cc(-c4ccc(OCCN5CCCCC5)cc4)cnc23)ccn1 [Dorsomorphin] (first compound 1 µM, partner dose 2 µM)", "cell count": 87.6}
{"smiles": "Cc1cc(N2CCOCC2)cc2[nH]c(-c3c(NC[C@@H](O)c4cccc(Cl)c4)cc[nH]c3=O)nc12", "note": "+ COc1ccc(COc2ccc(Cc3cnc(N)nc3N)cc2OC)cc1 [GW2580] (first compound 1 µM, partner dose 5 µM)", "cell count": 99.9}
{"smiles": "Cn1nnc2c(C(N)=O)ncn2c1=O", "note": "[temozolomide] + O=C(Nc1ccccc1)c1cc([N+](=O)[O-])ccc1Cl [GW9662] (first compound 10 µM, partner dose 10 µM)", "cell count": 65}
{"smiles": "O=C(Nc1cc(C(F)(F)F)cc(C(F)(F)F)c1)c1cc(Cl)ccc1O", "note": "+ COc1ccc(-c2ccc3c(N4CCOCC4)nc(N4C[C@@H](C)O[C@@H](C)C4)nc3n2)cc1CO [KU0063794] (first compound 0.08 µM, partner dose 0.1 µM)", "cell count": 82.4}
{"smiles": "O=C(O)[C@@H]1[O][Sb](=[O])([O][Sb]2(=[O])[O][C@H]([C@H](O)CO)[C@H](O)[C@H](C(=O)O)[O]2)[O][C@H]([C@H](O)CO)[C@@H]1O", "note": "(stereo partly specified) [stibogluconate] + COc1ccc(-c2ccc3c(N4CCOCC4)nc(N4C[C@@H](C)O[C@@H](C)C4)nc3n2)cc1CO [KU0063794] (first compound 10 µM, partner dose 0.1 µM)", "cell count": 78.3}
{"smiles": "O=C(O)c1ccc2c(c1)nc(Nc1cccc(Cl)c1)c1ccncc12", "note": "+ COC(=O)c1sccc1S(=O)(=O)Nc1ccc(Nc2ccccc2)cc1OC [GSK0660] (first compound 2 µM, partner dose 5 µM)", "cell count": 44}
{"smiles": "O=C(O)c1ccc2c(c1)nc(Nc1cccc(Cl)c1)c1ccncc12", "note": "+ O=C(O)C(=O)Nc1sc2c(c1C(=O)O)CCNC2 [TCS401] (first compound 2 µM, partner dose 8.33333 µM)", "cell count": 50}
{"smiles": "O=C(O)c1ccc2c(c1)nc(Nc1cccc(Cl)c1)c1ccncc12", "note": "+ Oc1cc(-c2nc(-c3ccccc3)[nH]c2-c2ccncc2)ccc1Cl [L779450] (first compound 2 µM, partner dose 1 µM)", "cell count": 50.5}
{"smiles": "O=C(Nc1ccccc1)c1cc([N+](=O)[O-])ccc1Cl", "note": "+ O=C(O)C(=O)Nc1sc2c(c1C(=O)O)CCNC2 [TCS401] (first compound 10 µM, partner dose 8.33333 µM)", "cell count": 62.1}
{"smiles": "Cn1nnc2c(C(N)=O)ncn2c1=O", "note": "[temozolomide] + O=C1NC(=O)/C(=C/c2ccc(-c3ccc(F)cc3O)o2)S1 [AS252424] (first compound 10 µM, partner dose 5 µM)", "cell count": 95.7}
{"smiles": "O=C(Nc1ccccc1)c1cc([N+](=O)[O-])ccc1Cl", "note": "+ O=c1cc(-c2cccc3c2Sc2ccccc2S3)oc(N2CCOCC2)c1 [KU55933] (first compound 10 µM, partner dose 5 µM)", "cell count": 64.6}
{"smiles": "Cn1nnc2c(C(N)=O)ncn2c1=O", "note": "[temozolomide] + COC(=O)c1sccc1S(=O)(=O)Nc1ccc(Nc2ccccc2)cc1OC [GSK0660] (first compound 10 µM, partner dose 5 µM)", "cell count": 84.2}
{"smiles": "O=C(Nc1cc(C(F)(F)F)cc(C(F)(F)F)c1)c1cc(Cl)ccc1O", "note": "+ c1cc(-c2cnn3cc(-c4ccc(OCCN5CCCCC5)cc4)cnc23)ccn1 [Dorsomorphin] (first compound 0.08 µM, partner dose 2 µM)", "cell count": 85.1}
{"smiles": "O=C(O)[C@@H]1[O][Sb](=[O])([O][Sb]2(=[O])[O][C@H]([C@H](O)CO)[C@H](O)[C@H](C(=O)O)[O]2)[O][C@H]([C@H](O)CO)[C@@H]1O", "note": "(stereo partly specified) [stibogluconate] + O=C1NC(=O)/C(=C/c2ccc(-c3ccc(F)cc3O)o2)S1 [AS252424] (first compound 10 µM, partner dose 5 µM)", "cell count": 104}
